The values that follow come from publication PMC10668032.

The list shows a part of the results. At the low end of the ranking, values are background and their order means little.

In this test the target is SIX1 homeodomain (reference allele) (UniProt Q15475). As to the kind of experiment: universal protein binding microarray. To be noted: Universal all-10-mer PBM (8x60K, AMADID 030236), 300 nM GST-tagged protein, Alexa Fluor 488 anti-GST; buffer, salt, pH and temperature not stated; high values mean tight binding; most listed sequences are background and not binding sites; double strand, one strand shown.
With GGAAATCC, the binding signal is -0.0963 E-score.
Then TAGTTTGA, with 0.0493 E-score; and GTGCTCGA, with -0.231 E-score; and ATTAGCAG, with -0.0522 E-score.
In the case of ATCCAAGA it was 0.155 E-score; in that of GCTCTGCA, -0.221 E-score; in that of CCCTTACA, -0.067 E-score.
In the case of CAGGAGCG it was -0.118 E-score.
As to GACCGAGC, the binding signal was -0.167 E-score.
In the case of AACGCGGA it was -0.143 E-score; in that of ACAGAAAC, -0.144 E-score; in that of ATGCATCC, 0.0381 E-score.
In the case of AGTGTGGC it was -0.165 E-score.
On to CATAGACC, for which the binding signal is -0.0122 E-score.
As for ACTCTCAA, the binding signal was -0.125 E-score.
In the case of TCGGTGAA it was -0.0606 E-score; in that of TTCCAGAA, -0.0604 E-score; in that of GTACTCTA, 0.0466 E-score.
In the case of CACACCGC it was 0.164 E-score; in that of ATTTCGAA, -0.307 E-score.
As to GCATGCAC, the binding signal is -0.143 E-score.
Then CGCAGAAG, with -0.139 E-score; and CCCAGTCA, with -0.18 E-score.
In the case of AACAAACG it was -0.226 E-score.
In the case of ACCACCTA it was -0.0312 E-score; in that of CAGGCGTC, -0.117 E-score; in that of ACAGCATG, -0.0806 E-score.
Take GGACAGAC: the binding signal was -0.192 E-score.
In the case of AGAGCTGC it was -0.132 E-score.
Then AGGTACAT, with 0.00426 E-score.
In the case of CTAGCTAC it was -0.0574 E-score.
For the sequence CCATCACG, the binding signal was 0.0582 E-score.
In the case of CAGTTCAG it was -0.0715 E-score; in that of GTCCGCAC, -0.257 E-score; in that of AAAGTGAG, 0.0798 E-score.
On to TCCGCCAA, for which the binding signal was found to be 0.042 E-score.
Take TCAAAAAA: the binding signal is -0.262 E-score.
Take GACCACTA: the binding signal is -0.0946 E-score.
In the case of CGTTATAA it was -0.0153 E-score; in that of CCAGGTGA, 0.0318 E-score; in that of CACTGTCC, 0.0661 E-score.
Then TGGAACAA, with -0.0711 E-score; and GATTTGAA, with -0.19 E-score.
Turning to GAGCTACC, the binding signal is -0.0996 E-score.
In the case of GATGCAAA it was -0.0767 E-score.
In the case of GTATGCCA it was 0.0821 E-score; in that of CGTTGTAA, -0.137 E-score.
Then AAACTCAC, with -0.154 E-score.
Take AATGACAT: the binding signal was -0.0364 E-score.
Then AAATCCTT, with -0.113 E-score; and CGATTAAG, with -0.231 E-score; and AAGAACTC, with -0.185 E-score.
In the case of AGAGTGAA it was -0.149 E-score; in that of CTCAACGC, -0.168 E-score; in that of GCTGGTCC, -0.0926 E-score.
Then ACGGTTGG, with -0.0417 E-score; and AAGAGAAA, with -0.138 E-score; and GGATTACC, with 0.271 E-score.
Take CATCTAAC: the binding signal was 0.0244 E-score.
In the case of GGTAGTAA it was -0.0504 E-score; in that of AATCGCAC, -0.0975 E-score.
Then TCTATACA, with 0.243 E-score; and CAACTCGA, with -0.0381 E-score; and GGGACACA, with 0.0444 E-score.
Turning to ATGCGTGC, the binding signal is -0.0992 E-score.
Then ACGGGGCC, with -0.159 E-score; and ACTGCAAA, with -0.0245 E-score.
For CATCTGAG, the binding signal was found to be 0.0848 E-score.
Then ACAGGACT, with -0.163 E-score.
For the sequence AACCGCTA, the binding signal worked out at 0.00775 E-score.
Then GCGGGTCA, with -0.0674 E-score; and CCGATTAC, with 0.0959 E-score; and ACCGTGAA, with -0.243 E-score.
Consider CCGTTTCC, for which the binding signal was -0.237 E-score.
Then AGTGGTCA, with -0.209 E-score.
In the case of AAATGGGT it was -0.0909 E-score; in that of AATAGTAC, 0.0505 E-score; in that of CCCTAACG, -0.0971 E-score.
In the case of GCGCACGA it was -0.0712 E-score; in that of CATACCGA, 0.112 E-score.
For the sequence CCTCGCCA, the binding signal is -0.106 E-score.
For ACTACCCT, the binding signal stood at 0.00554 E-score.
In the case of AACCCATA it was 0.263 E-score; in that of CCTCCAAA, 0.0312 E-score; in that of ATTAAACA, -0.133 E-score.
In the case of AGTAATTG it was -0.107 E-score.
CGATAGTA: the binding signal amounted to 0.263 E-score.
Turning to AAGAAGAA, the binding signal is 0.00103 E-score.
On to ACACTGGT, for which the binding signal stood at 0.0103 E-score.
In the case of TCACTCGA it was 0.124 E-score; in that of AGGGACGA, -0.129 E-score; in that of CCTGACTA, 0.101 E-score.
On to ATGCTGGC, for which the binding signal was -0.153 E-score.
Turning to TCACATGA, the binding signal stood at 0.166 E-score.
In the case of GGATCTCA it was 0.298 E-score; in that of ACGGGTGG, 0.111 E-score; in that of CGGCAAAC, -0.0372 E-score.
In the case of TATAATAA it was 0.1 E-score.
AGTCGCCC: the binding signal is -0.206 E-score.
Take GGTGTCAC: the binding signal was found to be 0.476 E-score.
ACTGAAGC: the binding signal amounted to 0.0644 E-score.
In the case of CACTAGGC it was -0.179 E-score; in that of GCTGATAC, 0.459 E-score; in that of GCACTTCC, -0.345 E-score.
Then CCACAAGA, with 0.0343 E-score; and ATTGTAAC, with 0.0267 E-score.
As for ACCGCGAG, the binding signal is 0.00066 E-score.
Then CACGACTA, with -0.0311 E-score; and CTCAGTAC, with -0.143 E-score.
For the sequence AATAAATA, the binding signal is 0.0556 E-score.
As for GATATACC, the binding signal was found to be 0.459 E-score.
In the case of CGAATTTC it was 0.0192 E-score; in that of GAGTCACA, -0.0163 E-score; in that of CATGTCGA, 0.0339 E-score.
In the case of CCCGATTA it was 0.187 E-score; in that of CGGGATAA, 0.17 E-score.
For ATGTTCTC, the binding signal was -0.0557 E-score.
In the case of ATGAATCC it was 0.0152 E-score; in that of AACTAGCT, -0.13 E-score.
Turning to ACTCCCAT, the binding signal came to 0.00598 E-score.
Then AACATTGG, with -0.312 E-score; and ACCGCCGT, with -0.0402 E-score; and GCAATTCA, with -0.211 E-score.
In the case of AGCGGAGG it was -0.226 E-score; in that of CCTTGACC, -0.128 E-score.
With GATCATGA, the binding signal is 0.273 E-score.
In the case of GGGAACGA it was -0.139 E-score; in that of CGATCTAA, 0.11 E-score.
Take ATGCTATC: the binding signal was 0.241 E-score.
Regarding TGATAGCA, the binding signal is 0.323 E-score.
Then CCAACAGC, with -0.0815 E-score; and CGTCCCGC, with -0.201 E-score; and CAAGCGTA, with -0.0147 E-score.
As for ATCAACCA, the binding signal is 0.139 E-score.
As for AGTGAAGG, the binding signal is -0.0817 E-score.
For the sequence GCTAATAA, the binding signal is -0.0747 E-score.
In the case of AGACCGCC it was -0.0301 E-score; in that of TATCGGGA, 0.317 E-score; in that of CCGCGGAC, -0.126 E-score.
Then AACAACAA, with -0.142 E-score.
Then AGCAGCTG, with -0.219 E-score.
With GTCTCTGA, the binding signal is -0.00624 E-score.
Consider GTAACTCA, for which the binding signal was -0.26 E-score.
In the case of AGAAATCC it was 0.0198 E-score.
Then AATACTCC, with 0.112 E-score; and ATTAGATC, with 0.287 E-score; and GAGAACTA, with -0.003 E-score.
In the case of ATCGATCA it was 0.17 E-score.
As for GGAAGCAA, the binding signal was -0.204 E-score.
On to AGTATAAC, for which the binding signal worked out at 0.145 E-score.
In the case of CATTGATC it was 0.265 E-score; in that of ATCTGCCG, 0.0863 E-score; in that of GCGATTAC, -0.043 E-score.
In the case of AATTCTCG it was -0.106 E-score; in that of GGACGGCC, -0.192 E-score; in that of CGTGCCCA, -0.0655 E-score.
In the case of GCAACTCA, the binding signal was -0.211 E-score.
In the case of TAGATACA it was 0.25 E-score.
In the case of AACCGTCG it was -0.175 E-score; in that of CGAGTAAG, -0.103 E-score.
CAATAGCA: the binding signal came to 0.0849 E-score.
On to ATCACTGG, for which the binding signal amounted to 0.215 E-score.
Then GCAGATCA, with 0.369 E-score.
In the case of CTCGTGAC it was -0.0534 E-score.
With ACCCCTCA, the binding signal came to 0.0622 E-score.
CGTTTTGA: the binding signal was -0.0843 E-score.
In the case of CTGTTGCA it was -0.162 E-score; in that of AAATGTAT, 0.0352 E-score; in that of CTGAAAGC, 0.0299 E-score.
In the case of GTGGTGGA, the binding signal came out at 0.00264 E-score.
In the case of AGCTATCG it was 0.284 E-score.
In the case of TCTCCAAA it was 0.083 E-score.
